Results: PMC12136788
The other results are listed elsewhere or left out.

T1: UNK ZnF1-3 (human, UniProt Q9C0B0 31-174)
T1 sequence: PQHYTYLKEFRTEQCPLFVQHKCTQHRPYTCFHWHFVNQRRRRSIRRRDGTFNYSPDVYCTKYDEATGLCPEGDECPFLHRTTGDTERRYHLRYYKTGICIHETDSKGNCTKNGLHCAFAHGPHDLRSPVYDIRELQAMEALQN

B1: chr1:39469031:39469032:+_ENSG00000174574_ENST00000432648|hu_hu|motif|central (ssRNA)
RNA: GGGAGUUCUACAGUCCGACGAUCAUACCGUCGCAUAAUCUGAUCAUGUGUGAAUUUCACAAAAGAUUCAUAUUGUUCUGCGGGUUUGGUAUUGAGGAUUUGCUCAUACUCCUCCCGAAUUUUAUCUUCAUAGUCUUUUAAGAGCAACAGAGGAUUGAGCAUCA
B2: chrX:98862621:98862622:+_ENSMUSG00000034160_ENSMUST00000044475|mus_hu|mus_mus_mus_hu_False|68_68 (ssRNA)
RNA: GGGAGUUCUACAGUCCGACGAUCCUGCAUCUCCUUUAGAGUGUUUCCCAUAUUAGAGUAGGCAUCAGCAAAUGUAGGACUGAUUCGAAUAGCCUCCUUAUAAUGCAUCAGAGCUUCCUGCAGUUUUCCCUGCUGCUGCAGUACCAACAGAGGAUUGAGCAUCA
B3: chr17:65337090:65337091:-_ENSG00000197170_ENST00000584008|hu_hu|motif|central (ssRNA)
RNA: GGGAGUUCUACAGUCCGACGAUCACCAGUCAUUUAAUAAAUUAUUUGGAUCCUUGGGUCUCUGGAAGUUGAUAAUUCCUGCGGAUCUGUCUACUUUAGCAAAGAUGGUCUUGUUAACUACUAGAUUUGAGAGAAAGGCUUCGGCAACAGAGGAUUGAGCAUCA
B4: chr11:18503389:18503390:-_ENSG00000074319_ENST00000251968|hu_hu|hu_hu_hu_mus_True|88_108 (ssRNA)
RNA: GGGAGUUCUACAGUCCGACGAUCAUUUUCCAUUUUUUCCAGAGCAGAACUGAGUUCUUCAUCCUUCUUUUUCAAAAGUUCUAUGUUUUUAUCAACUUCAGCUACUUCUUGAUCUAAGCGGGUGACCAUCUCUUCCAGUUUCUGCAACAGAGGAUUGAGCAUCA
B5: chr16:13835293:13835294:+_ENSMUSG00000022681_ENSMUST00000136618|mus_mus|motif|central (ssRNA)
RNA: GGGAGUUCUACAGUCCGACGAUCAGGAAAGAGUAUAUUCUCUGGAGAUGGGAAUUUUUUUAAAAACAUCAAGGUAGAUCGGAUAUGUUCAACAAAGUGGGGGGGCUCGGCCAGAGGAGACGUGGAAAGGCUCUCUAGGAUUUGCAACAGAGGAUUGAGCAUCA
B6: 47741279_47743844_752_3pUTR_ENSMUSG00000023988_ENSMUST00000024783|mouse|control|control (ssRNA)
RNA: GGGAGUUCUACAGUCCGACGAUCACAGUCUCCACCUCUGUCUGCUUCUCCGUCAACUUCUCCAUGAUGAUAUCAGCCAGGGUGCGCCUCACGGGAGGAUUCUUGUUCAUGAACAUUUCAAUGGCACGCUCAUCUUCAGGGUCCCAACAGAGGAUUGAGCAUCA
B7: chr15:99544167:99544168:+_ENSMUSG00000023018_ENSMUST00000023759|mus_mus|FALSE|FALSE (ssRNA)
RNA: GGGAGUUCUACAGUCCGACGAUCCCCAGGGCUGUCCAGUGUCACUGUGGGGAGGACCUUCCAAGGGGAGGGGUGGAUAUAGGACAUGGGAGGACAGGGAGAAGACUGCUGUCCCCAGUACAGAACAGGCUGGGAAGGGUGCAGCAACAGAGGAUUGAGCAUCA
B8: chr2:217001844:217001845:+_ENSG00000079246_ENST00000392132|hu_hu|hu_hu_hu_mus_False|58_98 (ssRNA)
RNA: GGGAGUUCUACAGUCCGACGAUCACCAACUUGAGGAUUAGCUCUUUUGUCAUAAGCAUAUCGGACGAUGGCGACCAUGUCUAAGUCAUCCAAAGCAUGAACGAGAGAGGAAAGGGCAACAGCUGCCGCCUCAUCAUCCUUUGCCAACAGAGGAUUGAGCAUCA
B9: 38352980_38353100_4098_CDS_ENSMUSG00000044864_ENSMUST00000156038|mouse|control|control (ssRNA)
RNA: GGGAGUUCUACAGUCCGACGAUCCUUCUUGUAGUUGAAGCUGGGGUCAGAGCCCUCAAUCUGGAGCUUCAGGGCUUGUUUGAGGUUCAGCUCUGUCUCCGAGGGGGGGAAGCCCUCCAGCACCUCCUGAUGCCCUCGCUCCUGCAACAGAGGAUUGAGCAUCA
B10: 91027473_91029270_3994_CDS_ENSG00000140575_ENST00000268182|human|control|control (ssRNA)
RNA: GGGAGUUCUACAGUCCGACGAUCCAACAGGAGAGUGUGGGUGUUGAUGAUUUCACCAAUGGAAAUGUAGAUUACUGGUUUGGUGAGGGUUACUAAAUCAGAGUACUCAUCCACAUUAAAUUUAUCCUGAAGCUCUGGGACAUCCAACAGAGGAUUGAGCAUCA
B11: chrX:153712385:153712386:-_ENSG00000102178_ENST00000369660|hu_mus|FALSE|FALSE (ssRNA)
RNA: GGGAGUUCUACAGUCCGACGAUCGUAAAUUUACUGUGUUUUUAAACCAAUUACUGGAAACCAAAAGCAGUCUAGCUUAUUAAUAGAGUUCCUUUUGGUGAAAUGACUCACAUGCAUCUUUAGUGUUAAUUUUACAAAUACGUUCAACAGAGGAUUGAGCAUCA
B12: chr8:95500983:95500984:-_ENSG00000164944_ENST00000437199|hu_hu|hu_hu_hu_mus_True|58_78 (ssRNA)
RNA: GGGAGUUCUACAGUCCGACGAUCAGAACACAUCUAUCGAGUAAAGGACCGUACAUGGACGACCUCUCCACUGCCUCCCACUAACAACUUUCCUCUCGAGCCUCCACUGCCGCUAUUUGUACUAGCCCAGGACGGUCCCAGGCCCAACAGAGGAUUGAGCAUCA
B13: chr2:155211079:155211080:+_ENSMUSG00000038375_ENSMUST00000043237|mus_hu|motif|central (ssRNA)
RNA: GGGAGUUCUACAGUCCGACGAUCGAGGCUGGAGAGGCGCUGGAACAUGGUGGGGGGCGAAGCGCCUCACGGGGGCGCCCGGUGGCAGUGCAAAAACCUCUCUGUGAUCCAAACAGCUGGGAGGCAGCGAUUUUAUUGGACUCUCAACAGAGGAUUGAGCAUCA
B14: 8912445_8912565_612_3pUTR_ENSMUSG00000071658_ENSMUST00000096259|mouse|control|control (ssRNA)
RNA: GGGAGUUCUACAGUCCGACGAUCUAUAGAUAGAGUAGAAGGUGCUUGGAGUUAGCCUGAAAGGGUGAGGAGAUGGGGUAGACAUGGGUAAGGAGGGCCUUGUGCUUCAAAUAAUCUCCGGGUAAAUGCGGGUAGAAGUGAUCUCAACAGAGGAUUGAGCAUCA

The binders below were run against T1, UNK ZnF1-3 (assay: nsRBNS (natural sequence RNA bind-n-seq); RBNS binding buffer (assumed for nsRBNS): 25 mM Tris pH 7.5, 150 mM KCl, 3 mM MgCl2, 0.01% Triton X-100, 500 ug/ml BSA, 20 U/ml SUPERase-In, 4 C; UNK is unkempt and MSI1 is Musashi-1; names of the RNAs are library labels; protein concentration not given here; high values mean tight binding).

Q: How did the binding signal turn out when B1 was run?
A: 0.732 enrichment R

Q: Which binding signal does the source give for B2 here?
A: 1.12 enrichment R

Q: With B3 as the binder, how does the binding signal read?
A: 1.68 enrichment R

Q: Which binding signal does the source give for B4 here?
A: 0.468 enrichment R

Q: How did the binding signal turn out when B5 was run?
A: 2.1 enrichment R

Q: With B6 as the binder, how does the binding signal read?
A: 0.769 enrichment R

Q: Which binding signal does the source give for B7 here?
A: 1.41 enrichment R

Q: B8 was tested. Which binding signal did it give?
A: 2.12 enrichment R

Q: B9 was tested. Which binding signal did it give?
A: 0.385 enrichment R

Q: Which binding signal does the source give for B10 here?
A: 1.34 enrichment R

Q: With B11 as the binder, how does the binding signal read?
A: 0.592 enrichment R

Q: With B12 as the binder, how does the binding signal read?
A: 1.45 enrichment R

Q: How did the binding signal turn out when B13 was run?
A: 1.28 enrichment R

Q: With B14 as the binder, how does the binding signal read?
A: 1.79 enrichment R
